Reference: publication PMC6919601, “Identification of Plasmodium dipeptidyl aminopeptidase allosteric inhibitors by high throughput screening” (PLoS ONE, 2019)
In all, about 110,000 compounds went through this assay and about 230 (0.21%) showed an effect of 50% or more. The list shows a part of the results.

target: DPAP1 (Plasmodium falciparum, UniProt Q8IIJ9); experiment: primary screen, percent inhibition; read by cleavage of a fluorogenic dipeptide substrate; higher = more effect of the substance; design: species or system P. falciparum D10 trophozoite lysates; single well
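Further: 30 min substrate incubation versus DMSO and 10 µM JCP410 controls.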

DPAP1, sequence (Q8IIJ9 whole entry, looked up): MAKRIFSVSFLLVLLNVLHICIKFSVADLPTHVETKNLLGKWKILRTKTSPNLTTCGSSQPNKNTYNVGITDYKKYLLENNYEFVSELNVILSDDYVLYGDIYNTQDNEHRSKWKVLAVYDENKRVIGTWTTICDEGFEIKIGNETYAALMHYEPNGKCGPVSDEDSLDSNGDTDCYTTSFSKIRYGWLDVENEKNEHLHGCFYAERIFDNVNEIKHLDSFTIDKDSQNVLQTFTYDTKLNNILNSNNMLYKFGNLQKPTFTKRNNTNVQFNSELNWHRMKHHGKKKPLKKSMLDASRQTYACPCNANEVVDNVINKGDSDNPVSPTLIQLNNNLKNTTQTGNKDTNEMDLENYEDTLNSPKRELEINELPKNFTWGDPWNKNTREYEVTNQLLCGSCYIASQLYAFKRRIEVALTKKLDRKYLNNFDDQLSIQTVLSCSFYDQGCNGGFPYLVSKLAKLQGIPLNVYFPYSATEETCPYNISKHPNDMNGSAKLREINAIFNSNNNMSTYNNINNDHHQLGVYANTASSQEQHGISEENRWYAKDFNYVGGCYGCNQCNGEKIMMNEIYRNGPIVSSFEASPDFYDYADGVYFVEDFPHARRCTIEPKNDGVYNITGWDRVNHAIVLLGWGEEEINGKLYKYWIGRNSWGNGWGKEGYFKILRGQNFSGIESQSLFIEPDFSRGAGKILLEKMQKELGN

SMILES | % Inhibition @ 10 uM
Cc1c(CCC#N)c(Cl)n2c(nc3ccccc32)c1C#N | -4.49%
Cn1cnc2c1c(=O)n(Cc1ccccc1C#N)c(=O)n2C | 2.95%
CCOc1ccc(C2NC(S)=NC(C)=C2C(=O)OC)cc1 (stereo not shown) | 0.736%
Cc1cc(NC(=O)c2cccc(COc3cc(Cl)ccc3Cl)c2)no1 | -4.77%
COc1ccc(OC)c(NC(=O)c2ccccc2C)c1 | -6.67%
O=C(CCCCCNc1nc(S)nc2ccccc12)NCCc1c[nH]c2ccccc12 | 6.89%
c1cc2nc(C34CC5CC(CC(C5)C3)C4)[nH]c2cn1 | 2.65%
CCC1CCCCN1C(=O)c1cc2c(C)nn(-c3ccccc3)c2s1 (stereo not shown) | 0.408%
CCC(NC(=O)c1csc2c1CCCC2)c1ccccc1 (stereo not shown) | -0.992%
CC(C)CN1C(=O)c2ccccc2C(C(=O)N2CCC(N3CCCCC3)CC2)C1c1cccs1 (stereo not shown) | 5.13%
S=C1NCN(Cc2ccco2)CN1CC1CCCO1 (stereo not shown) | -1.92%
CCN(CC)CCNC(=O)c1ccc(CSc2nc3ccncc3n2Cc2ccccc2F)cc1 | 1.72%
O=C1NC(=O)C(c2ccccc2)(c2ccccc2)C(=O)N1 | -4.35%
O=C(c1cc([N+](=O)[O-])ccc1Cl)N1CCN(c2cccc(Cl)c2)CC1 | -1.56%
CCN(CCN(C)C)C1CCC(c2ccccc2)CC1 (stereo not shown) | 4.75%
CC(C)c1ccc(OCC(=O)Nc2ccccc2C#N)c(Br)c1 | -2.34%
O=C(CC(c1ccccc1)c1cc(Br)ccc1O)N1CCCC1 (stereo not shown) | -4.84%
CC(C)NC(=O)CN(Cc1ccccc1)S(=O)(=O)c1ccccc1 | 1.81%
COc1ccc2cc3c(N)nn(C(=O)/C=C/c4cccnc4)c3nc2c1 | 4.68%
Cc1cc(C(c2cc(C)c(N)c(C)c2)c2ccco2)cc(C)c1N | -3.03%
CC(C)N(Cc1nc(-c2ccc(Cl)cc2)no1)C(=O)C(C)(C)C | 0.232%
C=CCO/C(O)=C1/C(C)=Nc2ncnn2C1c1cc(Br)ccc1OC (stereo not shown) | -3.37%
Cc1ccc(-n2cccc2C=C2C(=O)NC(=O)NC2=O)cc1Cl | 1.91%
COCc1c(Br)c(C)nc(OCC(=O)O)c1C#N | 2.99%
CC(Cc1ccccc1F)NC1CCN(Cc2ccccc2)CC1 (stereo not shown) | -3.5%

SMILES | % Inhibition @ 10 uM
CC(C)N1C/C(=C\c2ccc3nccnc3c2)C(=O)/C(=C/c2ccc3nccnc3c2)C1 | 5.41%
COc1cc(NS(=O)(=O)c2ccc(NC(=O)c3cc(Cl)sc3Cl)cc2)nc(OC)n1 | -3.46%
N#C/C(=C\c1ccc(OCC(=O)O)c(Cl)c1)c1nc2ccccc2[nH]1 | -5.2%
COCCCN1C(=O)S/C(=C/c2ccc(OC)c(OC)c2)C1=O | -1.44%
COc1ccc(Br)cc1CN1CCCC(C(=O)N2CCCCCC2)C1 (stereo not shown) | -2.98%
COc1ccc(/C=C2\N=C(c3c(-c4ccccc4)noc3C)OC2=O)c(OC)c1 | -2.6%
Clc1ccc(-c2nc(-c3cccnc3)no2)c(Cl)c1 | 2.03%
Cc1cc(C(=O)c2nc3c(n2O)CCCC3)ccc1Cl | -1.81%
COc1ccc(C2=NC3(CCN(C(=O)c4ccccc4C)CC3)NC2=O)cc1 | 3.5%
CCCCCCNC(=O)Cc1cccc2ccccc12 | 0.238%
COc1cccc(/C=C2/N=C(c3cccc(Cl)c3Cl)OC2=O)c1OC | 2.28%
OCCC1CCCCN1C1CCCCCCC1 (stereo not shown) | -0.0908%
CCc1ccc(-c2cc(C(F)(F)F)n3nc(C(=O)NCCCOC)cc3n2)s1 | -5.81%
O=C1C=C(N2CCOCC2)c2ccccc2C1=O | -1.32%
COc1ccc(C(=O)N2CCc3ccccc3C2)cc1 | 3.84%
Cn1c(C(=O)N2CCC(C(=O)NCc3ccccn3)CC2)cc2sccc21 | -3.35%
CC(=O)c1cnc2c(-c3ccccc3)c(C)nn2c1C | -0.13%
COc1nccc(NCc2ccccc2)c1C#N | 4.16%
Cc1ccc(S(=O)(=O)Nc2cc(SCC(=O)O)c(O)c3ccccc23)c(C)c1 | 3.46%
CCN1CCN(Cc2c[nH]c3ccccc23)CC1 | -0.405%
COc1ccc(C2(CNS(=O)(=O)c3ccccc3)CCCC2)cc1OC | 0.587%
O=C(Nc1ccccc1)c1nc[nH]c1C(=O)Nc1ccccc1 | 3.24%
COc1ccccc1CN1CCN(Cc2ccc(F)cc2)CC1 | -5.29%
N#CC1=C(SCC(=O)Nc2nccs2)NC(=O)CC1c1ccccc1 (stereo not shown) | -1.06%
Cc1cc(OCC(=O)Nc2cccnc2)cc(C)c1Cl | 17%

SMILES | % Inhibition @ 10 uM
Cc1ccc(-c2cn3nc(N4CCCC(C(=O)NCCN5CCCC5)C4)sc3n2)cc1 (stereo not shown) | -0.878%
O=C(NCc1ccccc1)c1scc2c1CCCC2 | 0.777%
CCOC(=O)c1nnn(-c2nonc2N)c1C(F)(F)F | 3.25%
Cn1nc(C(=O)Nc2cccc(C(F)(F)F)c2)cc1C(=O)Nc1cccc(C(F)(F)F)c1 | 3.35%
COc1ccc(-c2noc(CN(C(=O)COc3ccccc3C)C(C)C)n2)cc1 | -0.352%
Cn1c2c(c(=O)n(C)c1=O)C(C(F)(F)F)(C(F)(F)F)NC(c1ccco1)=N2 | -2.29%
COc1ccc(NS(=O)(=O)c2ccc(NC(=O)c3ccc(C)c(Br)c3)cc2)cc1 | -2.76%
CCOC(=O)c1sc(NC(=O)c2cc(-c3ccccc3OC)on2)c(C(=O)OCC)c1C | -2.65%
O=C(c1cc2cc([N+](=O)[O-])ccc2oc1=O)N1CCOCC1 | -2.32%
CCNC(=O)C1c2ccccc2C(=O)N(CCOC)C1c1cccs1 (stereo not shown) | 9.08%
O=S(=O)(c1ccccc1)c1cccc(S(=O)(=O)N2CCOCC2)c1 | -3.55%
CCOC(=O)C1=C(C)N=C(N)SC1c1ccc(Cl)cc1 (stereo not shown) | 0.351%
CCN1CCN(c2nc3c(S(=O)(=O)c4ccc(C(C)C)cc4)nnn3c3ccsc23)CC1 | -5.57%
CC(C)(C)C(=O)Nc1noc2ccccc12 | 2.19%
O=[N+]([O-])c1ccc(CN2CCN(c3ncccn3)CC2)cc1 | 3.16%
CCOc1ccccc1C(=O)N1CC(C)N(C(=O)c2ccccc2OCC)CC1C (stereo not shown) | -3.26%
CN(C)c1ccc(CN(CCO)CCO)cc1 | -2.34%
COc1ccc(-c2nc(-c3c(C)[nH]c4ccccc34)cs2)cc1OC | 6.59%
Cc1oc2ccc(O)c(CN3CCCCC3C)c2c1C(=O)OCC(C)C (stereo not shown) | -8.69%
O=C(CSc1nc2nncc-2c(O)n1-c1cccc2ccccc12)NCc1ccccc1Cl | 3.04%
CC1(C)CC(C(CCN)Cc2ccccc2)CCO1 (stereo not shown) | 2.62%
COc1ccc(C(=O)Nc2cccc(OC)c2)cc1 | 1.91%
C/C(=C\c1ccccc1)CN(CCCN(C)C)CCCN(C)C | -7.56%
Cc1ccc(CNC(=O)C2Sc3nnc(-c4ccccc4)n3NC2c2ccccc2)cc1 (stereo not shown) | 3.35%
CCC(C)NC(=O)c1cccc2c1C(=O)N(C1CCCCC1)C2 (stereo not shown) | 4.01%

SMILES | % Inhibition @ 10 uM
COC(=O)C1=C(C)N(C2CCCCC2)C(=O)/C1=C\c1cccc(Cl)c1 | 0.0538%
O=C(Nc1ncc(Cc2ccccc2)s1)c1ccc2c(c1)CC(c1ccccc1)OC2=O (stereo not shown) | -4.98%
Cc1cc(O)n2nc(NC(=O)Cc3ccccc3)nc2n1 | -3.31%
CCC(=O)N1c2ccccc2N=C2CC(C)(C)CC(O)=C2C1c1c[nH]c2ccccc12 (stereo not shown) | 5.9%
Cc1[nH]c2ccc(C(=O)N3CCN(c4ccccn4)CC3)cc2c1C | -3.39%
Cc1c(C(N)=O)nnn1-c1cccc(Cl)c1 | 2.32%
CC(C)C[C@H](NC(=O)c1ccc(-c2cnc(N=C(N)N)s2)cc1)C(=O)N[C@@H](Cc1ccc(O)cc1)C(=O)O | 18.1%
O=C1NC(=O)N(c2ccccc2)C(=O)/C1=C/c1ccco1 | 0.266%
Cc1ccc(S(=O)(=O)N2CCN(C(=O)N3CCCC3)CC2)cc1 | 3.49%
CCC(Oc1ccccc1)C(=O)Nc1ccc(S(=O)(=O)Nc2cnc3ccccc3n2)cc1 (stereo not shown) | -10.2%
O=C(Nc1ccccc1Br)c1cc2ccccc2oc1=O | 1.8%
O=C(Nc1ccc(Br)cc1)c1ccccc1Cl | -3.27%
CCOc1ccc(C(=O)N(Cc2nc(-c3ccccc3)no2)C(C)C)cc1 | -7.89%
O=S(=O)(NCc1ccco1)c1ccc(-n2cccn2)cc1 | -1.26%
CN(C)CC1CSCCC1(O)c1ccccc1 (stereo not shown) | 85.1%
CCNC(=O)OCC(CC)NC(=O)OCC(C)C (stereo not shown) | 3.87%
Cc1ccc(CCNC(=O)C2CCC(CNS(=O)(=O)c3cccc4nsnc34)CC2)cc1 (stereo not shown) | -0.465%
C[C@@H](C[C@H](NC(=O)c1ccc(-c2ccccc2Cl)nc1)C(=O)NCC#N)c1ccccc1 | 11.1%
CC1CCCC(NC(=O)c2ccc(CNS(=O)(=O)c3ccccc3)cc2)C1C (stereo not shown) | 0.208%
CCCCN(CCCC)CCNC(=O)C1CCN(C(=O)c2cc3sccc3n2C)CC1 | 3.4%
COc1cc(Br)c(C2CC(=O)NC3=C2C(=O)CC(C)(C)C3)cc1OC (stereo not shown) | -7.27%
O=C(NC1(C(F)(F)F)C(=O)Nc2c1c(=O)[nH]c(=O)n2-c1ccccc1)c1ccc(Cl)cc1 (stereo not shown) | -3.34%
COc1cccc(-c2nc(CS(=O)(=O)CC(=O)NCC(C)c3ccccc3)c(C)o2)c1 (stereo not shown) | -1.89%
CC(C)NC(=O)CSc1cn(CC(=O)N2CCCCC2)c2ccccc12 | 1.12%
O=C(NCCN1CCCCCC1)C1CCCN1S(=O)(=O)c1cccc2nsnc12 (stereo not shown) | -0.465%
